Drawing on PMC10726135, this text covers binding signal (log2 normalized intensity) for 93 sequences.

The list shows a part of the results. At the low end of the ranking, values are background and their order means little. Measured with an extract: partners may take part in the binding.

In the assay the target is T1, HNF4alpha2 (COS-7 nuclear extract) (UniProt P41235).
T1 sequence: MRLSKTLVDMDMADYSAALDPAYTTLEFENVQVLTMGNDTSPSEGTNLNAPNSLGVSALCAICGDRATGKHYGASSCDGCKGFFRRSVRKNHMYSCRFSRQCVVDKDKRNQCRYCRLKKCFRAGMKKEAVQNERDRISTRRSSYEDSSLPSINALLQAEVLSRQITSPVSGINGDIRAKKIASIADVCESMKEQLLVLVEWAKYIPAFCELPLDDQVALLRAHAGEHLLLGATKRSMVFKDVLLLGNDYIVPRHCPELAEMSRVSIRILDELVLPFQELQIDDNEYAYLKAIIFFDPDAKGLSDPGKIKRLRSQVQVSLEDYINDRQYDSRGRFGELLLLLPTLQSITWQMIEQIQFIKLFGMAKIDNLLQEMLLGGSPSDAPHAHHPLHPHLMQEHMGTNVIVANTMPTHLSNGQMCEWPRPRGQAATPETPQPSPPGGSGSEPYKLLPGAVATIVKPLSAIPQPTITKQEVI
In words: protein-binding microarray. The following applies: COS-7 nuclear extract on double-stranded Agilent 4x180k PBM; binding buffer, salt, pH and temperature not given; high values mean tight binding; double strand, one strand shown; sequences stand for … in …GCCTAGGGAGATTAGAGTATCGGTCGA
Take TTCCACCTGGAATGCACTTGTTCCGGATAG: the binding signal (log2 normalized intensity) turned out to be 1.11.

Consider TCACAGCTATTGTATCTATCTCTATGTCCA, for which the binding signal (log2 normalized intensity) stood at 1.09.

With CCCAGTTAACTGGACAAGGAGGCTGGGCTG, the binding signal (log2 normalized intensity) is -1.15.

For TGCACATTCCCTCCAGCAGGGGATGCCCTT, the binding signal (log2 normalized intensity) was determined as 2.38.

For the sequence GAGTAGAGGTGACTTACATGCAGAGATACT, the binding signal (log2 normalized intensity) is -1.13.

Turning to TTGACCATTGTGTTAAAGGAATTCAGGACT, the binding signal (log2 normalized intensity) came to 0.875.

Turning to GCAAAGTTCAACCCTGAATGTGTGCTGGCC, the binding signal (log2 normalized intensity) is 0.977.

As to TAACTGCTGCATGTCATGACCTTCATCAAT, the binding signal (log2 normalized intensity) worked out at 2.46.

On to AAACGCTGAAGTCTCAAAGTTCACCACTTT, for which the binding signal (log2 normalized intensity) stood at 2.66.

Consider ATAAAGTTAAGACCTACATTAAGACCACCT, for which the binding signal (log2 normalized intensity) is -1.18.

ACATTTTTGTCATCTTCACTTTTGTGGCCT: the binding signal (log2 normalized intensity) worked out at 2.15.

With GCCCCACACTCCTGGGCTGTATGTTCTAAC, the binding signal (log2 normalized intensity) is -0.294.

Take ATCGGTCTTTACACATCTGTTAGGAATGTC: the binding signal (log2 normalized intensity) came out at 1.42.

For the sequence AGGAGGGATCTGGCAGGGGCGCGGCCTAAT, the binding signal (log2 normalized intensity) was -0.915.

Consider GGACTTGGGACTCTGCAGACTGGTGCTATG, for which the binding signal (log2 normalized intensity) was 2.58.

As for AATGATCTGACTCGGGTGTTCACAGGTGAC, the binding signal (log2 normalized intensity) was 1.12.

With ACCTGAGGCCAAGCAGCTGTGATGAGGCCA, the binding signal (log2 normalized intensity) is -1.13.

Consider TTGTACCCTTCTTTCCACCCTGTTGCACAA, for which the binding signal (log2 normalized intensity) was determined as 1.65.

In the case of CTAGCAAATCTGCCCAACCTTTGCCCCTGG, the binding signal (log2 normalized intensity) was 5.74.

With TTTGTCTCAGGAACTTTGTTTGTGTTTCCC, the binding signal (log2 normalized intensity) turned out to be 1.35.

TTCAGGGTTAAAAGTTCTGCTGAGTATCCA: the binding signal (log2 normalized intensity) amounted to 0.761.

For CCCAGTGTCTCTGGGCGCTGGGAAGACAGT, the binding signal (log2 normalized intensity) is -1.2.

TAAACCACCCAATCCTGCAGCATTCCCTAC: the binding signal (log2 normalized intensity) was -1.14.

As for TGCATTAAAGTCACAAAGGTGGAACTCAAG, the binding signal (log2 normalized intensity) is 0.849.

As for TGGGCTTCAGACATTGCAAATCTCTTCTTC, the binding signal (log2 normalized intensity) is -0.484.

On to CACAAAGGGTTATGGGAAGTGGGGTAAGCA, for which the binding signal (log2 normalized intensity) came out at 0.273.

Regarding CATCGAGGCCATCCCAGTTACTCAGCGAAT, the binding signal (log2 normalized intensity) was -1.11.

In the case of TCTTGTTTCAGAGTAAATACGAACCGTCGT, the binding signal (log2 normalized intensity) is 1.46.

Regarding TCTGTCTCATTCCCTGACAGACCCCTCCTA, the binding signal (log2 normalized intensity) was determined as 4.12.

On to GTAATAAGCAGTAGACTAAAACCCATATCT, for which the binding signal (log2 normalized intensity) was -1.33.

For the sequence TTGCATAGGCATTGTCTTGAAAGATAAAGT, the binding signal (log2 normalized intensity) was 0.627.

Turning to AGCAGCAGGGTCAGAAGGGAGGTAGTCGCC, the binding signal (log2 normalized intensity) is -1.06.

For GGAGGGTCTTGCTTTGATGTTGATGGTTGC, the binding signal (log2 normalized intensity) was determined as 1.54.

Take GGGGGGAAGCTCTGTCACTTCTGGTTACCA: the binding signal (log2 normalized intensity) is -1.09.

Turning to AGTAGGATAAGTCCTTCCAAAGTCCTTCTA, the binding signal (log2 normalized intensity) was 2.41.

With TAAGTTGAAGTGAGTTGTTTGTTTTGAGAT, the binding signal (log2 normalized intensity) was determined as 1.35.

TGCCCAGCTGCATCCTGTGCCTTGGTAGAG: the binding signal (log2 normalized intensity) is -0.618.

For AGTACAGCTTTTTGTTTGTGTAAGTGTGGG, the binding signal (log2 normalized intensity) was 2.25.

For the sequence ATCAGGTTTCTCAAGTGATCGAAGGTCAAC, the binding signal (log2 normalized intensity) is 4.61.

As for CTTCACACAAACATCACCTACCTGACTCCT, the binding signal (log2 normalized intensity) was -1.17.

Take ATGCCTTGTCTAGTTAAGTGTTCAGCAAAT: the binding signal (log2 normalized intensity) came to 1.22.

Take GTGATAACCCCTATGTCTTCAGACTTCAAA: the binding signal (log2 normalized intensity) came to 1.88.

Turning to CTGGATGCCCAGGGATTCCTGAAGATCGCA, the binding signal (log2 normalized intensity) is -1.26.

With ATTCGTCCAGGGCCGCCCAAGCGAATATGT, the binding signal (log2 normalized intensity) was -1.02.

As to AGCAATCTACTTTTCTTTTGGCATCTGTTG, the binding signal (log2 normalized intensity) was 1.44.

Regarding GCTGGACGCTGGTCAGCATCCTGCTTGTGA, the binding signal (log2 normalized intensity) was -0.707.

With GGTGAGGGGAGCGTAAAACCACTGGCCCAT, the binding signal (log2 normalized intensity) was -1.08.

CACAGAAGTGGACCTTCACCAGATACTGAA: the binding signal (log2 normalized intensity) was 0.751.

Turning to GGACTGTCCTTTGCTAGATTCTTTCTTCCT, the binding signal (log2 normalized intensity) was 0.875.

As to GACCAGGAGTTTGGGATCAGACACGTGGGA, the binding signal (log2 normalized intensity) came to 0.516.

As to CCCAGATATCTCTGGTAAACAGCTGACAAT, the binding signal (log2 normalized intensity) was -0.967.

Regarding GTACCATTCATGGACAGCCTTGCCACATGG, the binding signal (log2 normalized intensity) was -1.07.

CAATACTAGCAATAACCACAAGGGGGGAGC: the binding signal (log2 normalized intensity) was -1.1.

In the case of TAGCCACTGCATGATAGGCCCATCTTCTTA, the binding signal (log2 normalized intensity) is -1.14.

Take CAAGGTAACCCCCAACATTCTTTCCAGCTT: the binding signal (log2 normalized intensity) stood at 1.29.

Consider CTCACAGGTTGTACTATGACCCAAACTTCA, for which the binding signal (log2 normalized intensity) stood at 3.43.

On to TGCTCCCTCCTGTGGTAATAAGTTGGTGGA, for which the binding signal (log2 normalized intensity) was determined as 1.31.

TCAGCCTTGGGGCCATTCCAGTTTTGGAGA: the binding signal (log2 normalized intensity) was determined as 0.0939.

Turning to GTTTACTAAAGGAAGGGAGGTGAGTGCTAG, the binding signal (log2 normalized intensity) is -1.27.

Regarding CCCTCGACGCGCCGGCGCAGCCGCGCTCCG, the binding signal (log2 normalized intensity) is -1.06.

Regarding GGTTCTTCCACGACTCCCCCGCTCACCCCT, the binding signal (log2 normalized intensity) was found to be 5.05.

Regarding CTTTTGGGATCAGCAATGCTCAGCCCACCT, the binding signal (log2 normalized intensity) was -1.09.

On to CCGCGACAAGCGTCGCTGAGTGGAGGCCCA, for which the binding signal (log2 normalized intensity) is -0.847.

For CCTTGGACTCCTGGACTCAAGGAATCCTCC, the binding signal (log2 normalized intensity) was determined as 2.4.

CTTAAGTTGTACCTGACTAAAACCTGCTGC: the binding signal (log2 normalized intensity) was -1.18.

Consider GACCCTTATCAGCCTAGACAAGGCACCAAA, for which the binding signal (log2 normalized intensity) is -1.19.

Take CTCCATCTCCTCCACCAGCTTGCTGCAGAT: the binding signal (log2 normalized intensity) is -1.04.

Turning to ACATTCTGGAATGATACGCCGGCCAATCCG, the binding signal (log2 normalized intensity) was -1.13.

On to TAACATCTAACAGCTGATGAGGCACCAACA, for which the binding signal (log2 normalized intensity) is -1.05.

Turning to TGATGCCTGACTCAAGAAAGGATCTCACCC, the binding signal (log2 normalized intensity) was -1.16.

For the sequence CTGGTCCTCAGGCCTTTGGACCCAGACTGA, the binding signal (log2 normalized intensity) is 4.36.

For the sequence CAGGCAGATTTGACCTACGGACCATGGATC, the binding signal (log2 normalized intensity) worked out at 3.11.

TCAGAAACAGGAATTCAAAGGTGCAAAGGT: the binding signal (log2 normalized intensity) was found to be 2.06.

With GCAGCACCTTGATGCTGGACTTCAGCCTCC, the binding signal (log2 normalized intensity) was determined as 4.7.

Regarding CTTTTTCTTCTGGGGACGCCCACTGCTTTG, the binding signal (log2 normalized intensity) was -1.21.

Turning to GACCAGTCTGCCTGACTCCAGAGTCCAAAC, the binding signal (log2 normalized intensity) turned out to be 2.77.

Regarding GGGCAGCGCGGCGCGCTGGGAAGGCTCGTT, the binding signal (log2 normalized intensity) is -1.03.

As for GGGGAAATGACCTTTGTCCAGCTGTGCCGA, the binding signal (log2 normalized intensity) was 6.11.

Consider ACAGCCCTGACATTCTTGAGCTGCTAAACC, for which the binding signal (log2 normalized intensity) was -0.984.

Regarding TCTGGCTTGGCCCCCGGACCCAAAGTAAAC, the binding signal (log2 normalized intensity) was determined as 4.04.

As to CTATAAAACAGGAAAAAGGGACAAAACTTC, the binding signal (log2 normalized intensity) is -1.12.

As to CGTGGTTGATCAAAGGTTGGACTGAGGACC, the binding signal (log2 normalized intensity) was 2.93.

With TACACAAAAGAGCTTTGAGTCTGGTGTTTC, the binding signal (log2 normalized intensity) came to 0.62.

Take AAATCTTAGAGAACACTCCTCCCCTTTTCT: the binding signal (log2 normalized intensity) was 2.07.

As for GGAAATCCGAAATAAACTGAGGGGTGGGGA, the binding signal (log2 normalized intensity) was -1.09.

Consider GTGTGTGTGTGTGTGTGTGTATGCCATGCT, for which the binding signal (log2 normalized intensity) came to 2.33.

Consider CGCCACTGCATTCCAGCCTGGGGCAATAGA, for which the binding signal (log2 normalized intensity) is -1.11.

Consider TTAGGACAACATGAGTAAACGAGCTATTTA, for which the binding signal (log2 normalized intensity) is -1.13.

Regarding ATGACACCCATCATGAGTAGGTTTACTAAA, the binding signal (log2 normalized intensity) was -0.0613.

Regarding GTCCAAGGACTTATCCTTGGGACATTCTCA, the binding signal (log2 normalized intensity) is -1.22.

CGCTGCCTCCCACCCCCACGGTGCGCTGCC: the binding signal (log2 normalized intensity) is 4.11.

With GGAAGGGATGGGGTGCAAACTCACCTGGAG, the binding signal (log2 normalized intensity) was -1.25.

Turning to TGGCCAAAGGGCACAAGAGGAATTGTTCAA, the binding signal (log2 normalized intensity) was found to be 1.18.
